Laboratory results from PubChem BioAssay AID1479 (National Center for Advancing Translational Sciences (NCATS), 2009).
About 820 (0.29%) of roughly 280,000 compounds were called active. The shares of active, inactive and inconclusive entries below differ from those in the screen. Calls follow the shape of the dose curve; as a rule, active = well fitted curve in either direction with a large enough effect; inconclusive = small, poorly fitted or top-dose-only effect; inactive = flat fitted curve, though single readings scatter. No potency is given beside an inconclusive call; the fits are too rough.

Assay: Total Fluorescence Counterscreen for Inhibitors of the Interaction of Thyroid Hormone Receptor and Steroid Receptor Coregulator 2
Details: TRb/SRC2 Texas Red total fluorescence interference; series mostly up to 106 µM; fluorescence change, negative = quenching: at the top concentration
Procedure, shortened: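 Human TRβ ligand-binding domain (0.6 uM) and Texas Red SRC2 peptide (20 nM) in Tris buffer with 1 uM T3 and 5% DMSO were incubated with pinned compound for 5 hr at ambient temperature. Total fluorescence was computed as S + 2P (555/632 nm).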
% is scaled to controls: 0 for no effect and ±100 for the full control effect; potency is read from the fitted curve at half-maximal effect; tags tell the direction and shape of the fitted curve or compound fluorescence and quenching.

Structure (SMILES) | Potency | fluorescence change, negative = quenching
C/C(=N\NC(=O)c1cc(-c2cccnc2)nc2ccccc12)c1ccccc1O | active: 3.16 µM [quencher] | 
CCc1ccc(OCC(=O)Nc2cc3oc4ccccc4c3cc2OC)c(Br)c1 | inconclusive [falling, full curve, poor fit] | 
COc1ccc(CCN2C(=O)C(Oc3ccccc3)C2c2ccc3c(c2)OCO3)cc1 (centres undefined) | inconclusive [falling, full curve, poor fit] | 
O=C(c1ccccc1Cl)N1CCCC(c2nc3c(nnn3Cc3ccc(F)cc3F)c(=O)[nH]2)C1 (centres undefined) | inconclusive [quencher, full curve] | 
Cc1c(Cl)cccc1NC(=O)c1cc(-c2cccs2)on1 | inconclusive [quencher, full curve] | 
C1COC1 |  | inactive: -1.56%
COc1ccc(C(=O)N2CCCCC2CCN2CCOCC2)cc1 (centres undefined) |  | inactive: 0.557%
Cc1ccc(NC(=O)CCCCCCCCCCC2COCCO2)c(C)c1 (centres undefined) | active: 0.0251 µM [quencher] | 
COc1ccc(OC)c(CNC(=O)c2cc(-c3ccc(Cl)s3)nc3ccccc23)c1 | inconclusive [quencher, partial curve] | 
Cc1ccc(S(=O)(=O)OCC2CN3C(CCC(C)C3c3ccc(Br)cc3)C(=O)O2)cc1 (centres undefined) | inconclusive [falling, full curve, poor fit] | 
COC(=O)c1ccc(NC(=O)N2CCC(CN3CCc4ccccc4C3)CC2)cc1 | active: 112 µM [quencher] | 
COc1cc(/C=C2/S/C(=N/S(=O)(=O)Cc3ccccc3)NC2=O)c([N+](=O)[O-])cc1OC |  | inactive: 2.69%
C/C(=N\NC(=O)c1ccccc1O)C1C(=O)c2ccccc2C1=O | inconclusive [quencher, partial curve] | 
O=C(Cc1cccs1)Nc1ccc(S(=O)(=O)N2CCCCC2)cc1 | inconclusive [quencher, full curve] | 
COc1ccc(CNc2nc(-c3ccco3)nn2C(=O)CC(C)C)cc1 | active: 79.4 µM [quencher] | 
COC(=O)c1ccc(Cl)cc1NC(=O)Nc1nnc(N(C)Cc2ccccc2)s1 |  | inactive: -1.21%
CCN1C(C)=C(C(=O)OC)C(c2ccccc2)N2C(=O)[C@](O)(C(=O)OC)C(c3ccccc3)C(C(=O)c3ccccc3)=C12 (some centres undefined) | inconclusive [falling, full curve, poor fit] | 
CCOc1ccc2nc(N3CCCC(C(=O)NCCc4ccc(SC)cc4)C3)sc2c1 (centres undefined) | active: 39.8 µM [quencher] | 
CCN(c1ccc(C)cc1C)S(=O)(=O)c1nnc(NC(=O)CC(C)C)s1 |  | inactive: 3.37%
